{"source": "paper PMC10691697", "about": "“A small molecule exerts selective antiviral activity by targeting the human cytomegalovirus nuclear egress complex” (PLOS Pathogens, 2023)", "key": {"[1]": {"target": "T1, HSV-1 P30-UL42 (Human herpesvirus 1, UniProt P10226)", "T1 construct": "containing UL42 residues 1–340; GST (N); glycine-serine linker of the modified pGEX6p plasmid (presence inferred) (N); made in house; host or cells: E. coli (UL42: pLysS BL21)", "test": "biochemical", "type": "binding", "details": "HSV1 P30-UL42, replicates, read-out: normalized FRET signal relative to control without inhibitor"}, "[2]": {"test_system": "MCMV M50-M53", "type": "binding", "details": "MCMV M50-M53, replicates"}, "[3]": {"target": "T2, UL50_C54S+UL53 (Human cytomegalovirus, UniProt P16794)", "T2 construct": "GST (N, cleaved yes); 13-residue glycine-serine linker […]; made in house; host or cells: E. coli BL21 (DE3) RIPL", "test": "biochemical", "type": "binding", "details": "replicates, read-out: normalized FRET signal relative to control without inhibitor"}, "[4]": {"target": "T3, UL50_C35N+UL53 (Human cytomegalovirus, UniProt P16794)", "T3 construct": "GST (N, cleaved yes); 13-residue glycine-serine linker […]; made in house; host or cells: E. coli BL21 (DE3) RIPL", "test": "biochemical", "type": "binding", "details": "replicates, read-out: normalized FRET signal relative to control without inhibitor"}, "[5]": {"target": "T4, UL50_C79S+UL53 (Human cytomegalovirus, UniProt P16794)", "T4 construct": "GST (N, cleaved yes); 13-residue glycine-serine linker […]; made in house; host or cells: E. coli BL21 (DE3) RIPL", "test": "biochemical", "type": "binding", "details": "replicates, read-out: normalized FRET signal relative to control without inhibitor"}, "[6]": {"test_system": "HCMV expressing GFP (53-F BADGFP)", "details": "6 dpi, replicates"}, "[7]": {"test": "HTRF assay without protein targets (interference)", "details": "no protein, singlicate; for HTRF ratio for GK1: A665nm/A620nm * 10000"}}, "note": "“And” between values parts separate entries of the source, which are not always exact repeats. Equal values may be shown once. Read-outs that look alike come from different tables or passages of the source."}
{"smiles": "C=CC(=O)Nc1cccc(Oc2cc(Cl)nc3[nH]ccc23)c1", "note": "[GK1]", "values": [{"measurement": "remaining activity at 1.56 µM", "setting": "[1]; 1.56 μM compound", "result": 92, "unit": "%"}, {"measurement": "remaining activity at 3.13 µM", "setting": "[1]; 3.13 μM compound", "result": 99, "unit": "%"}, {"measurement": "remaining activity at 6.25 µM", "setting": "[1]; 6.25 μM compound", "result": 108, "unit": "%"}, {"measurement": "remaining activity at 50 µM", "setting": "[1]; 50.00 μM compound", "result": 116, "unit": "%"}, {"measurement": "normalized FRET signal relative to control without inhibitor", "setting": "[2]; 0.20 μM compound", "result": "98.0000 and 101.0000 and 100.0000"}, {"measurement": "normalized FRET signal relative to control without inhibitor", "setting": "[2]; 1.56 μM compound", "result": 98.0000}, {"measurement": "normalized FRET signal relative to control without inhibitor", "setting": "[2]; 3.13 μM compound", "result": "98.0000 and 97.0000 (2×)"}, {"measurement": "normalized FRET signal relative to control without inhibitor", "setting": "[2]; 6.25 μM compound", "result": "100.0000 and 95.0000 and 98.0000"}, {"measurement": "normalized FRET signal relative to control without inhibitor", "setting": "[2]; 50.00 μM compound", "result": "100.0000 and 97.0000 and 98.0000"}, {"measurement": "remaining activity at 3.13 µM", "setting": "[3]; 3.13 μM compound", "result": 76, "unit": "%"}, {"measurement": "remaining activity at 6.25 µM", "setting": "[3]; 6.25 μM compound", "result": 60, "unit": "%"}, {"measurement": "remaining activity at 3.13 µM", "setting": "[4]; 3.13 μM compound", "result": 93, "unit": "%"}, {"measurement": "remaining activity at 6.25 µM", "setting": "[4]; 6.25 μM compound", "result": 85, "unit": "%"}, {"measurement": "remaining activity at 3.13 µM", "setting": "[5]; 3.13 μM compound", "result": 100, "unit": "%"}, {"measurement": "remaining activity at 6.25 µM", "setting": "[5]; 6.25 μM compound", "result": 97, "unit": "%"}, {"measurement": "remaining activity at 50 µM", "setting": "[5]; 50.00 μM compound", "result": 50, "unit": "%"}, {"measurement": "anti-HCMV: number of plaques relative to DMSO vehicle", "setting": "[6]; 0.20 μM compound", "result": "63.0000 and 77.0000 and 66.0000"}, {"measurement": "anti-HCMV: number of plaques relative to DMSO vehicle", "setting": "[6]; 0.40 μM compound", "result": "57.0000 and 60.0000 and 52.0000"}, {"measurement": "anti-HCMV: number of plaques relative to DMSO vehicle", "setting": "[6]; 0.80 μM compound", "result": "52.0000 and 42.0000 and 49.0000"}, {"measurement": "anti-HCMV: number of plaques relative to DMSO vehicle", "setting": "[6]; 1.60 μM compound", "result": "45.0000 and 42.0000 and 36.0000"}, {"measurement": "HTRF ratio for GK1", "setting": "[7]; 0.5 microM", "result": 7386}, {"measurement": "HTRF ratio for GK1", "setting": "[7]; 0.71 microM", "result": 7809}, {"measurement": "HTRF ratio for GK1", "setting": "[7]; 1.01 microM", "result": 7909}, {"measurement": "Fluorescence at 620 nm (GK1)", "setting": "[7]; 8.42 microM", "result": 6521}, {"measurement": "Fluorescence at 620 nm (GK1)", "setting": "[7]; 12 microM", "result": 6638}, {"measurement": "Fluorescence at 620 nm (GK1)", "setting": "[7]; 17.1 microM", "result": 6601}, {"measurement": "Fluorescence at 620 nm (GK1)", "setting": "[7]; 24.2 microM", "result": 6467}, {"measurement": "Fluorescence at 620 nm (GK1)", "setting": "[7]; 34.7 microM", "result": 6177}, {"measurement": "Fluorescence at 620 nm (GK1)", "setting": "[7]; 49.5 microM", "result": 6154}]}
